# From PubChem BioAssay AID1240 (Sanford-Burnham Center for Chemical Genomics, 2008)
# Among all 50,000 compounds or so, about 800 (1.6%) showed an effect of 50% or more. The list shows a part of the results.
# Molecular target: Bcl-2-like protein 10 (Homo sapiens) (UniProt Q9HD36)
# Assay: TR3 peptide-Bcl-B binding displacers, biochemical primary FP assay, phenotype converters (AID 1240);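 note: 0% = Bcl-B with tracer peptide and DMSO and 100% = tracer peptide lacking Bcl-B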
# Settings: GST-Bcl-B / FITC-TR3 peptide fluorescence polarization; stronger effect = higher value; compound at 3.75 mg/L
# UniProt Q9HD36, sequence (Q9HD36 whole entry, looked up): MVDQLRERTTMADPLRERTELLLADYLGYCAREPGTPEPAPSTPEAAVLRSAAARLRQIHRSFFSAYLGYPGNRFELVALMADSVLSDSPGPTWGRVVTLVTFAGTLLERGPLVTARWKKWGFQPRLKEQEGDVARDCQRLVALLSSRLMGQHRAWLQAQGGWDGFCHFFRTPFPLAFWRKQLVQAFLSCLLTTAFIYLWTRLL
row,SMILES,displacement
1,O=C(c1ccccc1O)N1N=C(c2ccc(F)cc2)CC1(O)C(F)(F)F (stereo unspecified),6.1%
2,CC/C(=N\N1CCN(Cc2ccc(Cl)cc2)CC1)c1ccc(O)cc1,-5.8%
3,Cc1cc(C)cc(OCCCN2CCN(C)CC2)c1,-12.3%
4,CC(=O)Oc1ccc(/C=C2\C=C(c3ccc(C)cc3)OC2=O)c(OC(C)=O)c1,-10.2%
5,C(=N/Nc1nc2ccccc2o1)/c1ccc(N2CCOCC2)cc1,8.6%
6,O=C(Nc1cccnc1)C1(c2ccccc2)CCCC1,-3.2%
7,CCN(CC)c1ccc(N=Cc2c(O)n(C)c(=S)n(C)c2=O)cc1,-18.4%
8,O=c1[nH]c2ccccc2c(O)c1-c1ccccc1[N+](=O)[O-],-1.5%
9,COc1cc(/C=C2/C(=O)NC(=O)N(C)C2=O)ccc1OCC(=O)O,-22%
10,CC(C)(C)NC(=O)c1cnn(-c2ccccc2)c1NC(=O)c1ccccc1,1.8%
11,Cc1ccc(-c2csc(Nc3cccc4ccccc34)n2)cc1C,10%
12,CCNC(=O)N1c2cc(C)ccc2C(C)=CC1(C)C,-9.9%
13,COc1ccc2nc(SC)nc(C)c2c1,10.5%
14,O=C(N/N=C/c1ccccc1[N+](=O)[O-])c1cccc(Cl)c1,-7.2%
15,CC(O)c1cccc(NC(=O)c2cc3n(n2)C(C(F)(F)F)CC(c2ccc(F)cc2)N3)c1 (stereo unspecified),6.2%
16,COCCCNC(=O)COc1ccc(C)cc1,11.4%
17,C(=N\N=C(c1ccccc1)c1ccccc1)/c1ccccn1,-9.6%
18,CS(=O)(=O)Nc1ccc(S(=O)(=O)N2CCCCC2)cc1,-8.5%
19,COc1ccc(Br)cc1/C=C/C(=O)c1ccc(Cl)cc1,10.8%
20,C/C(=N\OCC(=O)N/N=C/c1ccc(C)cc1O)c1cccs1,-4.4%
21,COC(=O)Nc1sc(C)nc1-c1ccccc1,3.2%
22,O=C(c1ccc2c(c1)OCCO2)C1CCCCC1,1.6%
23,Cc1cc2c(cc1[N+](=O)[O-])-c1c(ssc1=S)C(C)(C)N2,41.3%

row,SMILES,displacement
1,Cc1cccc(C(=O)Nc2sc(C)c(C)c2C(N)=O)c1,-10.1%
2,CC1(C)CC(=O)C2=C(C1)NC(SCc1ccccc1)=C(C#N)C2c1ccc(Cl)cc1 (stereo unspecified),-21.7%
3,O=C(Cc1ccccc1)NC(c1ccc(Cl)cc1)c1c(O)ccc2ccccc12 (stereo unspecified),-11.2%
4,Cc1ccc(NC(=O)C(C)Sc2ccc(Cl)cc2)c(C)c1 (stereo unspecified),1.6%
5,COc1cccc(NC(=O)C(=O)N/N=C/c2ccc(O)c(OC)c2)c1,7.2%
6,COc1ccccc1CN1CCN(Cc2ccccn2)CC1,-28.3%
7,CCOC(=O)c1c(N)sc(C)c1-c1ccc(C(C)(C)C)cc1,0%
8,CCOc1ccc(/C=C2/SC(=S)N(C)C2=O)cc1,-0.3%
9,O=C(CCCOc1ccc(Cl)cc1Cl)NCCCn1ccnc1,15.5%
10,O=C1CC(Nc2ccc(N3CCOCC3)cc2)C(=O)N1c1ccccc1F (stereo unspecified),1.4%
11,CCOC(=O)N1CCN(C(=O)/C(=C\c2cccs2)NC(=O)c2cccs2)CC1,0.8%
12,CC(NC(=O)c1cccc2ccccc12)C(=O)O (stereo unspecified),17.4%
13,O=S(=O)(c1ccc(Br)c2ccccc12)N1CCCc2ccccc21,2.5%
14,COc1cc(C(=O)Nc2ccc(C)c(Cl)c2)cc(OC)c1OC,1.9%
15,CCOc1ccccc1NC(=O)C(=O)NCC1CCCO1 (stereo unspecified),15.3%
16,CCCN1C(=O)c2cccc3c(S(=O)(=O)N(C)C)ccc1c23,-1%
17,CC1(C)CC(=O)C=C(NNC(=O)c2ccc(O)cc2)C1,18.2%
18,O=C(NCc1ccc(Cl)cc1)C(=O)NN=C1CCCCC1,8.7%
19,CCCOC(=O)c1c(NC(=O)c2cccc(OCC)c2)sc2c1CCC2,22.8%
20,Cc1ccc(NC2CC(=O)N(c3ccc(C)cc3)C2=O)cc1 (stereo unspecified),8.6%
21,Cc1cc(OCC(=O)Nc2cc(Cl)ccc2Cl)ccc1Br,-5.1%
22,Cc1ccc(C(=O)N/C(=C\c2cccs2)C(=O)NCC(C)C)cc1,9.3%
23,O=C(O)C1C2C=CC(C2)C1C(=O)Nc1ccc(Br)cc1F (stereo unspecified),9.1%

row,SMILES,displacement
1,O=C(COc1ccccc1[N+](=O)[O-])NCc1ccco1,0.1%
2,O=S(=O)(NCc1ccco1)c1ccc(Cl)c(Cl)c1,10%
3,CCc1ccc(S(=O)(=O)Nc2ccc(OC(=O)c3ccc(Cl)cc3)cc2)cc1,-1.9%
4,CCCCN(CC)c1cnn(-c2ccccc2)c(=O)c1N,10.6%
5,COc1ccc(/C=N/NC(=O)c2ccncc2)cc1Br,12%
6,CC1=C(C(=O)OC(C)C)C(c2ccccc2F)NC(=S)N1 (stereo unspecified),2%
7,Cc1ccc(/C=N/NC(=O)C(O)c2ccccc2)cc1 (stereo unspecified),7.5%
8,Cc1oc2ccc(OCC(=O)c3ccccc3)cc2c1C(=O)O,6.8%
9,O=C(Cc1ccc(Br)cc1)Nc1ccc(F)cc1,3.3%
10,CC1=Nc2ccccc2/C1=C\c1sc(=S)n(-c2cccc(F)c2)c1O,-1.7%
11,COc1ccc(C(=O)Nc2ccc(Br)cn2)cc1OC,5.1%
12,COC(=O)c1sc(NC(=O)c2sc3cc(C)ccc3c2Cl)c(C#N)c1C,-0.9%
13,CCC(=O)Nc1ccc(NC(=O)c2cc(OC)c(OC)c(OC)c2)cc1,-9.7%
14,COc1ccc(C(=O)Oc2cccc3c(OC)ccc(C=O)c23)cc1,8.1%
15,CCOC(=O)c1cccc(NC(=O)COc2ccc([N+](=O)[O-])cc2)c1,8.1%
16,Cc1c(C(=O)O/N=C(\N)c2ccccn2)cccc1[N+](=O)[O-],13%
17,CCOc1ccc(C2/C(=C(\O)c3ccccc3)C(=O)C(=O)N2CCCC(=O)O)cc1 (stereo unspecified),-19.8%
18,COc1ccc(/C=C2\SC(=S)N(CC(=O)Nc3ncc(Cc4ccc(C)cc4)s3)C2=O)cc1OC,1.3%
19,Cc1ccccc1N(CC(=O)Nc1ccc([N+](=O)[O-])cc1)S(C)(=O)=O,-4.6%
20,O=C1C=C/C(=N\S(=O)(=O)c2ccccc2)C=C1Cl,29.2%
21,Cc1ccc(/C=C2\SC(=S)N(c3ccc(F)cc3)C2=O)cc1,16.2%
22,Cc1oc2ccc(OC(C)C(=O)O)cc2c1C(=O)O (stereo unspecified),14.7%
23,CC(/C=N/NC(=O)c1cccnc1)c1ccccc1 (stereo unspecified),7.7%

row,SMILES,displacement
1,CC(C)Cc1ccc(C(C)C(=O)Nc2ccc(O)cc2)cc1 (stereo unspecified),16.4%
2,CC1CCN(Cn2cnn(CN3CCC(C)CC3)c2=S)CC1,10.7%
3,CC(=O)Nc1ccc(N2CCN(C(C)=O)CC2)cc1,9.1%
4,Cc1ccc(-c2nc3ncccc3o2)cc1NC(=O)c1cccc(Cl)c1Cl,1.2%
5,Cc1c(Cl)cccc1NC(=O)CCCOc1ccccc1,-5.1%
6,Cc1ccc(NC(=O)/C(=C\c2ccc([N+](=O)[O-])o2)NC(=O)c2ccccc2I)cc1,-10.6%
7,Cc1nc2ccccc2n1S(=O)(=O)c1cccc(Cl)c1Cl,9.1%
8,COC(=O)c1cc(-c2ccc(C)cc2)nc2ccccc12,2.1%
9,O=C1NN(c2ccc(Cl)c(Cl)c2)C(=O)/C1=C/c1cccc([N+](=O)[O-])c1,16.5%
10,O=C(/C=C/c1ccc(-c2ccccc2Cl)o1)c1ccc2ccccc2c1,8.3%
11,O=S(=O)(Nc1ccc2c(c1)OCCO2)c1ccc2ccccc2c1,2.1%
12,COc1ccc(Cl)cc1C(=O)Nc1ccccc1[N+](=O)[O-],-0.8%
13,O=C1C(NC2CCCCC2)=C(N2CCCCC2)C(=O)c2ccccc21,7.4%
14,Cc1c(OCC(N)=O)ccc2c1oc(=O)c1ccccc12,6.9%
15,COc1cc(/C=C2/C(=O)NC(=O)N(c3ccccc3F)C2=O)ccc1OCc1ccc(C(=O)O)cc1,12.1%
16,COc1ccc(Cc2nc3ccccc3c(=O)n2/N=C/c2cccs2)cc1OC,-4.6%
17,Cc1ccc(-c2cc(C(=O)N/N=C/c3ccccc3)[nH]n2)cc1,-27.2%
18,Cc1nc(-c2ccccc2)sc1C(=O)Nc1ccc(-c2cn3ccccc3n2)cc1,10.6%
19,COc1ccc(OCCNc2cc(N3CCOCC3)ccc2[N+](=O)[O-])cc1,14.5%
20,CCOc1cccc(-c2cc(C(=O)Nc3ccc4c(c3)OCO4)c3ccccc3n2)c1,0%
21,COc1ccc(CC(=O)Nc2cc([N+](=O)[O-])ccc2C)cc1OC,3.3%
22,Nc1ccc(-c2ccc(N3C(=O)c4cccc5c(Cl)ccc(c45)C3=O)cc2)cc1,-1.3%
23,O=C(O)C(Cc1ccccc1)N1C(=O)/C(=C/c2ccc(Cl)cc2Cl)SC1=S (stereo unspecified),-6.3%

row,SMILES,displacement
1,O=C1NC(=S)NC(=O)C1=Cc1ccc(O)c(Cl)c1,-4.2%
2,O=C1NC(=Nc2cccc(O)c2)S/C1=C\C=C\c1ccccc1,-2.1%
3,CCn1c2ccccc2c2nnc(SCC(=O)NC(C)c3ccccc3)nc21 (stereo unspecified),12.8%
4,CCOC(=O)c1c(NC(=O)c2ccc(Cl)c(Cl)c2)sc(C(=O)Nc2ccccc2F)c1C,-11.4%
5,Cc1cccc(N2C(=O)c3ccc(Oc4ccc([N+](=O)[O-])cc4)cc3C2=O)c1C,12.3%
6,COc1ccc(NC(=O)COc2ccccc2C(C)C)c(OC)c1,-2%
7,Cc1ccc(C(CC(=O)C(C)C)C2C(=O)c3ccccc3C2=O)cc1 (stereo unspecified),-8.6%
8,CCOc1ccc(-c2nc3sc4c(c3c(=O)[nH]2)CCCC4)c2ccccc12,-6.1%
9,CCOC(=O)c1c(C)oc2ccc(OC(=O)c3cccc([N+](=O)[O-])c3)cc12,7.5%
10,Cc1ccc(-c2cc(C(=O)O)c3ccccc3n2)c(C)c1,-2.8%
11,Cc1ccc(C)c2c(N=NC(=O)/C(=C\c3ccccc3)NC(=O)c3ccccc3)c(O)[nH]c12,8.8%
12,Cc1nc2sc(C#N)c(N)c2c(C)c1CC(=O)c1ccccc1,-11.3%
13,O=c1nc2s/c(=C/c3ccc(Cl)c(Cl)c3)c(=O)n2nc1Cc1ccccc1,11.7%
14,Cc1cc(C23CC4CC(C2)CC(c2cc(C)c(S(N)(=O)=O)c(C)c2)(C4)C3)cc(C)c1S(N)(=O)=O,3%
15,COC(=O)c1ccc(C(=O)OC)c(NC(=O)COc2ccc(C)cc2C(C)(C)C)c1,17.1%
16,CC(C)(C)C(=O)NCC12C=CC(O1)C1C(=O)N(c3ccccc3)C(=O)C12 (stereo unspecified),-0.1%
17,Cc1ccc2[nH]c3nc(N/N=C/c4cccs4)nnc3c2c1,6%
18,Cc1cccc(N2C(=O)NC(=O)/C(=C\c3cc(Br)c(O)c([N+](=O)[O-])c3)C2=O)c1,9.1%
19,CN(C(=O)COc1ccc(Cl)cc1Cl)C1CCS(=O)(=O)C1 (stereo unspecified),10.4%
